{"source": "the antibiotic and cytotoxicity screens of Wong et al. (2023)", "key": {"HSkMC": {"test_system": "HSkMC", "test": "cytotoxicity call (relative viability < 0.9)", "conditions": "10 µM"}, "HepG2": {"test_system": "HepG2", "test": "cytotoxicity call (relative viability < 0.9)", "conditions": "10 µM"}, "S. aureus RN4220": {"test_system": "S. aureus RN4220", "test": "growth inhibition call (relative growth <= 0.2)", "conditions": "50 µM"}}, "note": "Some of the results follow.", "data": [{"compound": "O=C(CN1CCOCC1)NCC[C@@H]1CC[C@H](NS(=O)(=O)c2ccc(F)cc2)[C@@H](CO)O1", "values": [{"measurement": "cytotoxicity call", "setting": "HSkMC", "value": "inactive"}, {"measurement": "cytotoxicity call", "setting": "HepG2", "value": "inactive"}, {"measurement": "growth inhibition call", "setting": "S. aureus RN4220", "value": "inactive"}]}, {"compound": "NC(=O)N1CCC(=O)Nc2ccccc21", "values": [{"measurement": "cytotoxicity call", "setting": "HSkMC", "value": "inactive"}, {"measurement": "cytotoxicity call", "setting": "HepG2", "value": "inactive"}, {"measurement": "growth inhibition call", "setting": "S. aureus RN4220", "value": "inactive"}]}, {"compound": "CN1CCN(C(=O)C[C@H]2CC[C@H]3[C@H](COc4ccc(NC(=O)C5CCCCC5)cc4C(=O)N3C)O2)CC1", "values": [{"measurement": "cytotoxicity call", "setting": "HSkMC", "value": "inactive"}, {"measurement": "cytotoxicity call", "setting": "HepG2", "value": "inactive"}, {"measurement": "growth inhibition call", "setting": "S. aureus RN4220", "value": "inactive"}]}, {"compound": "O=C(C[C@@H]1C=C[C@@H](NC(=O)Nc2ccc3c(c2)OCO3)[C@@H](CO)O1)NCCCN1CCOCC1", "values": [{"measurement": "cytotoxicity call", "setting": "HSkMC", "value": "inactive"}, {"measurement": "cytotoxicity call", "setting": "HepG2", "value": "inactive"}, {"measurement": "growth inhibition call", "setting": "S. aureus RN4220", "value": "inactive"}]}, {"compound": "C[C@@H]1CN([C@H](C)CO)C(=O)c2ccccc2-c2ccccc2CO[C@@H]1CN(C)Cc1ccc(Cl)c(Cl)c1", "values": [{"measurement": "cytotoxicity call", "setting": "HSkMC", "value": "inactive"}, {"measurement": "cytotoxicity call", "setting": "HepG2", "value": "inactive"}, {"measurement": "growth inhibition call", "setting": "S. aureus RN4220", "value": "inactive"}]}, {"compound": "C[C@@H]1CN([C@@H](C)CO)C(=O)Cc2cc(NS(C)(=O)=O)ccc2O[C@@H]1CN(C)S(=O)(=O)c1ccc(F)cc1", "values": [{"measurement": "cytotoxicity call", "setting": "HSkMC", "value": "inactive"}, {"measurement": "cytotoxicity call", "setting": "HepG2", "value": "inactive"}, {"measurement": "growth inhibition call", "setting": "S. aureus RN4220", "value": "inactive"}]}, {"compound": "COCC#Cc1ccc2c(c1)O[C@H](CN(C)C(=O)CN(C)C)[C@@H](C)CN([C@H](C)CO)S2(=O)=O", "values": [{"measurement": "cytotoxicity call", "setting": "HSkMC", "value": "inactive"}, {"measurement": "cytotoxicity call", "setting": "HepG2", "value": "inactive"}, {"measurement": "growth inhibition call", "setting": "S. aureus RN4220", "value": "inactive"}]}, {"compound": "COC(=O)CCC(=O)CN", "values": [{"measurement": "cytotoxicity call", "setting": "HSkMC", "value": "inactive"}, {"measurement": "cytotoxicity call", "setting": "HepG2", "value": "inactive"}, {"measurement": "growth inhibition call", "setting": "S. aureus RN4220", "value": "inactive"}]}, {"compound": "COc1ccc(C(C)(C)N)cc1OC", "values": [{"measurement": "cytotoxicity call", "setting": "HSkMC", "value": "inactive"}, {"measurement": "cytotoxicity call", "setting": "HepG2", "value": "inactive"}, {"measurement": "growth inhibition call", "setting": "S. aureus RN4220", "value": "inactive"}]}, {"compound": "CCCNC(=O)N1C[C@@H](O)COC[C@H]2O[C@H](CC(=O)NCc3ccncn3)CC[C@@H]21", "values": [{"measurement": "cytotoxicity call", "setting": "HSkMC", "value": "inactive"}, {"measurement": "cytotoxicity call", "setting": "HepG2", "value": "inactive"}, {"measurement": "growth inhibition call", "setting": "S. aureus RN4220", "value": "inactive"}]}, {"compound": "C[C@H]1CN([C@@H](C)CO)C(=O)c2cccc(NC(=O)C3CC3)c2O[C@@H]1CN(C)Cc1ccc2c(c1)OCO2", "values": [{"measurement": "cytotoxicity call", "setting": "HSkMC", "value": "inactive"}, {"measurement": "cytotoxicity call", "setting": "HepG2", "value": "inactive"}, {"measurement": "growth inhibition call", "setting": "S. aureus RN4220", "value": "inactive"}]}, {"compound": "C[C@@H]1CN([C@H](C)CO)C(=O)c2cc(NC(=O)Cc3cn(C)c4ccccc34)ccc2O[C@H]1CN(C)Cc1ccc(Oc2ccccc2)cc1", "values": [{"measurement": "cytotoxicity call", "setting": "HSkMC", "value": "inactive"}, {"measurement": "cytotoxicity call", "setting": "HepG2", "value": "inactive"}, {"measurement": "growth inhibition call", "setting": "S. aureus RN4220", "value": "inactive"}]}, {"compound": "COCC#Cc1ccc2c(c1)O[C@@H](CN(C)C(=O)C1CCOCC1)[C@H](C)CN([C@@H](C)CO)S2(=O)=O", "values": [{"measurement": "cytotoxicity call", "setting": "HSkMC", "value": "inactive"}, {"measurement": "cytotoxicity call", "setting": "HepG2", "value": "inactive"}, {"measurement": "growth inhibition call", "setting": "S. aureus RN4220", "value": "inactive"}]}, {"compound": "Cc1ccc(S[C@]2(C(=O)NCCN3CCOCC3)CC(=O)N(Cc3cc(C(F)(F)F)cc(C(F)(F)F)c3)[C@@H]2c2ccc(CO)cc2I)cc1", "values": [{"measurement": "cytotoxicity call", "setting": "HSkMC", "value": "inactive"}, {"measurement": "cytotoxicity call", "setting": "HepG2", "value": "inactive"}, {"measurement": "growth inhibition call", "setting": "S. aureus RN4220", "value": "inactive"}]}, {"compound": "C[C@@H]1CN([C@@H](C)CO)C(=O)c2cc(NS(=O)(=O)c3ccccc3)ccc2O[C@H]1CN(C)CC1CC1", "values": [{"measurement": "cytotoxicity call", "setting": "HSkMC", "value": "inactive"}, {"measurement": "cytotoxicity call", "setting": "HepG2", "value": "inactive"}, {"measurement": "growth inhibition call", "setting": "S. aureus RN4220", "value": "inactive"}]}, {"compound": "O=C(O)c1cc2ccccc2s1", "values": [{"measurement": "cytotoxicity call", "setting": "HSkMC", "value": "inactive"}, {"measurement": "cytotoxicity call", "setting": "HepG2", "value": "inactive"}, {"measurement": "growth inhibition call", "setting": "S. aureus RN4220", "value": "inactive"}]}, {"compound": "Cc1ccc(S(=O)(=O)Nc2ccc3c(c2)C(=O)N([C@H](C)CO)C[C@H](C)[C@H](CN(C)Cc2ccc(Oc4ccccc4)cc2)O3)cc1", "values": [{"measurement": "cytotoxicity call", "setting": "HSkMC", "value": "inactive"}, {"measurement": "cytotoxicity call", "setting": "HepG2", "value": "inactive"}, {"measurement": "growth inhibition call", "setting": "S. aureus RN4220", "value": "inactive"}]}, {"compound": "COc1cccc(NC(=O)N(C)C[C@@H]2Oc3ncc(C#Cc4ccncc4)cc3C(=O)N([C@H](C)CO)C[C@H]2C)c1", "values": [{"measurement": "cytotoxicity call", "setting": "HSkMC", "value": "inactive"}, {"measurement": "cytotoxicity call", "setting": "HepG2", "value": "active"}, {"measurement": "growth inhibition call", "setting": "S. aureus RN4220", "value": "inactive"}]}, {"compound": "C[C@@H]1CN([C@H](C)CO)C(=O)c2cccc(NC(=O)Nc3ccc(C(F)(F)F)cc3)c2O[C@H]1CN(C)Cc1ccc(-c2ccccc2)cc1", "values": [{"measurement": "cytotoxicity call", "setting": "HSkMC", "value": "inactive"}, {"measurement": "cytotoxicity call", "setting": "HepG2", "value": "inactive"}, {"measurement": "growth inhibition call", "setting": "S. aureus RN4220", "value": "inactive"}]}, {"compound": "COc1ccccc1C#Cc1ccc2c(c1)O[C@@H](CN(C)Cc1cncnc1)[C@@H](C)CN([C@@H](C)CO)S2(=O)=O", "values": [{"measurement": "cytotoxicity call", "setting": "HSkMC", "value": "inactive"}, {"measurement": "cytotoxicity call", "setting": "HepG2", "value": "inactive"}, {"measurement": "growth inhibition call", "setting": "S. aureus RN4220", "value": "inactive"}]}, {"compound": "O=C(C[C@H]1CC[C@@H]2[C@H](COC[C@@H](O)CN2C(=O)Nc2cccc(Cl)c2)O1)NCCCN1CCOCC1", "values": [{"measurement": "cytotoxicity call", "setting": "HSkMC", "value": "inactive"}, {"measurement": "cytotoxicity call", "setting": "HepG2", "value": "inactive"}, {"measurement": "growth inhibition call", "setting": "S. aureus RN4220", "value": "active"}]}, {"compound": "COc1ccc(S(=O)(=O)N(C)C[C@H]2Oc3c(NC(=O)c4cc(C)nn4C)cccc3C(=O)N([C@H](C)CO)C[C@@H]2C)cc1", "values": [{"measurement": "cytotoxicity call", "setting": "HSkMC", "value": "inactive"}, {"measurement": "cytotoxicity call", "setting": "HepG2", "value": "inactive"}, {"measurement": "growth inhibition call", "setting": "S. aureus RN4220", "value": "inactive"}]}, {"compound": "COc1cccc(C(=O)Nc2ccc3c(c2)C(=O)N(C)[C@@H]2CC[C@H](CC(=O)NCCCN4CCOCC4)O[C@H]2CO3)c1", "values": [{"measurement": "cytotoxicity call", "setting": "HSkMC", "value": "inactive"}, {"measurement": "cytotoxicity call", "setting": "HepG2", "value": "inactive"}, {"measurement": "growth inhibition call", "setting": "S. aureus RN4220", "value": "inactive"}]}, {"compound": "Cc1ccc(S(=O)(=O)N(C)C[C@H]2OCCCC[C@@H](C)Oc3ccc(NC(=O)Nc4c(C)noc4C)cc3C(=O)N([C@@H](C)CO)C[C@@H]2C)cc1", "values": [{"measurement": "cytotoxicity call", "setting": "HSkMC", "value": "inactive"}, {"measurement": "cytotoxicity call", "setting": "HepG2", "value": "inactive"}, {"measurement": "growth inhibition call", "setting": "S. aureus RN4220", "value": "inactive"}]}, {"compound": "COc1cccc(NC(=O)N[C@@H]2CC[C@@H](CC(=O)N3CCN(C)CC3)O[C@@H]2CO)c1", "values": [{"measurement": "cytotoxicity call", "setting": "HSkMC", "value": "inactive"}, {"measurement": "cytotoxicity call", "setting": "HepG2", "value": "active"}, {"measurement": "growth inhibition call", "setting": "S. aureus RN4220", "value": "inactive"}]}, {"compound": "N[C@H]1CC[C@H]2CN(Cc3ccc(Cl)c([N+](=O)[O-])c3)C[C@H]21", "values": [{"measurement": "cytotoxicity call", "setting": "HSkMC", "value": "inactive"}, {"measurement": "cytotoxicity call", "setting": "HepG2", "value": "inactive"}, {"measurement": "growth inhibition call", "setting": "S. aureus RN4220", "value": "inactive"}]}, {"compound": "C=CCC[C@@H](Cc1ccc(F)cc1)C(=O)OC[C@@H](NC(=O)[C@@H](CC=C)CC(=O)N[C@H](CO)Cc1ccccc1)C(C)(C)C", "values": [{"measurement": "cytotoxicity call", "setting": "HSkMC (human skeletal muscle cells)", "value": "inactive"}, {"measurement": "cytotoxicity call", "setting": "HepG2", "value": "active"}, {"measurement": "growth inhibition call", "setting": "S. aureus RN4220", "value": "inactive"}]}]}
